Data published in the RNAGym collection of RNA variant scans (doi:10.1073/pnas.2313332121).
Variants at the background level are over-represented here.

B1: TPR 5TU (parent)
chain: GGAUCUUCUCGAUCUAACAAAAAAGACAAAUCUGCCACAAAGCUUGAGAGCAUCUUCGGAUGCAGAGGCGGCAGCCUUCGGUGGCGCGAUAGCGCCAACGUUCUCAACUAUGACACGCAAAACGCGUGCUCCGUUGAAUGGAGUUUAUCAUG

Variants of: B1
Experiment: polymerase ribozyme fitness, log enrichment relative to wild type (log ratio); higher = more active; in vitro selection for triplet polymerase activity
Procedure, shortened: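 Each subunit of a heterodimeric triplet polymerase ribozyme was represented by a PCR-built, transcribed mutant library that underwent triplicate single-round in vitro selection with frozen incubation at −7 °C. Extended constructs were recovered by gel excision, streptavidin-bead capture and RT-PCR, and Illumina sequencing of input and output libraries kept genotypes with ≥10 input reads and ≥1 read per output. Fitness is the logarithm of genotype enrichment relative to wild-type enrichment, from inverse-variance-weighted replicate averages, with a logarithm base of 2.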

Variant | polymerase ribozyme fitness (log ratio)
C18U A26U U44C A49U G50C C75G C93U C103A A147U | ≤ -4.2
A19G C87A | ≤ -4.2
A19C U56A U104A A119U | -0.197
C18G C38U A73C G100A C103G | ≤ -4.2
C18U A20C A37U G59U G62U G83C C87U C103A C116U G136U | ≤ -4.2
C18G U33G C72U G80C C87G C108G G128U U135G | ≤ -4.2
C18G C57A G74A C93U C105G | ≤ -4.2
A19C G92A | -2.38
A19C G92U | 0.745
C18U C36U G67C G84A A107U G133U G141C | ≤ -4.2
A19C G50U U61A G92A | ≤ -4.2
A19G U31A U135G | ≤ -4.2
C18G A52C G59U A60G G88C C99A C105U U109G A147U | ≤ -4.2
C18U G84A | -0.579
A19G G48C G86A C103U C108G | ≤ -4.2
C18U C35U A37U C87G G126U C149A | ≤ -4.2
A19C C57A A66G A73U G92A G100U G143U | ≤ -4.2
A19U A23U U33A U61G C76U U144G | ≤ -4.2
C18G C96U | -1.12
C18U A37C A47U A49G U61G C95A G136U | ≤ -4.2
C18G A29U U31G U44C A49U C76U A98G C118A | ≤ -4.2

Variant | polymerase ribozyme fitness (log ratio)
A19G A24U U77G C93U | ≤ -4.2
A19G A28U A60C G83U | ≤ -4.2
C18U G50U C96G U146C | -0.747
A19G G74A G88A | ≤ -4.2
A19C A30U C51A A91U C129U A142C | ≤ -4.2
C18U A28U C38A A47C C85A U145C | ≤ -4.2
C18G G88U U102A A121C | ≤ -4.2
A19U A21C C32A U44A G92C G128A | ≤ -4.2
A19U A26U U55A C75U G124A G141U | ≤ -4.2
C18G G84U G117U A121G | -2.06
C18G C36A C96U A138U | -4.03
A19G C96U C123U | -0.681
A19C U56A A91U A147C | ≤ -4.2
A19G G74A G88C C131G G133A | ≤ -4.2
A19C C72A C85A C103G G141C | ≤ -4.2
C18U A23U C36A C87A U139C | ≤ -4.2
C18U U33G C93U C116G | ≤ -4.2
A19G C57A G65A | -2.01
A19G C35U A52U A66C U134A | ≤ -4.2
C18U G86A C96A U101G G112U | ≤ -4.2
A19U A26G A29U G48U U55C A73G A91U | ≤ -4.2

Variant | polymerase ribozyme fitness (log ratio)
A19C A49C | ≤ -4.2
A19G U44G C75U A89U C93U U102A C129U G140A | ≤ -4.2
A19C A26U A39G G50A C54U A91U | ≤ -4.2
A19G C57A G94C C95A | ≤ -4.2
A19C A20U C57U G88C G133C U135G U145A | ≤ -4.2
C18U A39C U61A C87A A121U | ≤ -4.2
A19U A20C A73G G92U C116A | -0.142
C18U U53A C85A C96A A137G | ≤ -4.2
C18U A40U U53G C75G C118A | ≤ -4.2
A19U A23G G84A U101G A115C | -3.62
C18G G86A C87A A91C A120C | ≤ -4.2
A19G G48A C75G C93A | ≤ -4.2
C18G A37U G65A C96G C108A A150U | ≤ -4.2
C18G C27G C69G C72G G86A U104G C116G A120G | ≤ -4.2
A19C C57U U90C U127A A137G U144G | ≤ -4.2
C18U U56A U90G C99U A120C C132U U134C | ≤ -4.2
C18G A37U U56A C118A U127G U146C | ≤ -4.2
A19C A26G C27G G48A C76A G83U A97U C118A G126A | ≤ -4.2
A19G A122C G136C A142C | -3.74
A19C A23U G46U U55G G74C | ≤ -4.2
A19G A20C A24G C76A C79A U148A | ≤ -4.2

Variant | polymerase ribozyme fitness (log ratio)
A19G G50C G80C A98U G124A A150U | ≤ -4.2
A19G C38A C57U U82C C95G C99U | ≤ -4.2
A19G C51A U55A G133A | ≤ -4.2
C18G C32G A41C C43U U44A G86A C93G U104A | ≤ -4.2
C18U A23U U31G A41C C85G C93G C96A A122G G140A | ≤ -4.2
A19G A29C G68C U78A U90C A98G A121G | ≤ -4.2
C18U C57A A115C G143U U148A | ≤ -4.2
A19G A22C A28G C36A C95U C105G | ≤ -4.2
A19C U55A U61A C76U G94C C99G U135A G143U | ≤ -4.2
C18U G50A C75A C87A C99U U145A | ≤ -4.2
C18U U90C C96G C99A | ≤ -4.2
C18U A20U A28C G50C G88U C96A G124U C125U U148A | ≤ -4.2
A19G G50U A119G A137G U148C | ≤ -4.2
A19C U31A C57A C95G C105A G128C C149A | ≤ -4.2
A19U A26G A29U G94U C129U | ≤ -4.2
A19C A30G C85G | ≤ -4.2
A19G G46U A49C A66C C79A U102G | ≤ -4.2
A19C A47C G59U C87U C96G A97U A142C G143A | ≤ -4.2
C18U G46C C54A G59C G86A U144C | ≤ -4.2
C18U A24U A29C C32U C87U U135G | ≤ -4.2
A19C A24C U82A C116A C118G | ≤ -4.2
